Experimental data from the supplement of paper PMC12217912.
The other results are listed elsewhere or left out. The full chains were built here from the parent and the listed change. Values near 0.05 are background.

B1: TEV protease; numbered along this chain (parent)
chain: MGESLFKGPRDYNPISSSICHLTNESDGHTTSLYGIGFGPFIITNKHLFRRNNGTLVVQSLHGVFKVKDTTTLQQHLVDGRDMIIIRMPKDFPPFPQKLKFREPQREERICLVTTNFQTKSMSSMVSDTSCTFPSGDGIFWKHWIQTKDGQCGSPLVSTRDGFIVGIHSASNFTNTNNYFTSVPKNFMELLTNQEAQQWVSGWRLNADSVLWGGHKVFMVKPEEPFQPVKEATQL

Variants of: B1
Test: raw area under fraction-flipped curve 0-4 h after induction (AUC4h, not background-subtracted), DNA-recorder readout of cleavage of the substrate (dimensionless); higher = more cleavage of the substrate by the protease variant
Conditions: temperature: 34 °C; time window: 0-4 h after rhamnose induction
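Further: Bxb1 expression induced with 0.2% (w/v) L-rhamnose at OD600 near 0.5, cultures sampled hourly, flipped fraction per protease–substrate barcode pair counted by paired-end Illumina sequencing.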

| Variant | area with substrate ENLYFQC | area with substrate ENLYFQD | area with substrate ENLYFQF | area with substrate ENLYFQG | area with substrate ENLYFQH | area with substrate ENLYFQI | area with substrate ENLYFQK | area with substrate ENLYFQL | area with substrate ENLYFQM | area with substrate ENLYFQN | area with substrate ENLYFQP | area with substrate ENLYFQR | area with substrate ENLYFQS | area with substrate ENLYFQT | area with substrate ENLYFQW | area with substrate ENLYFQY | area with substrate ENLYFQV | area with substrate ENLYFQE | area with substrate ENLYFQQ |
| --- | --- | --- | --- | --- | --- | --- | --- | --- | --- | --- | --- | --- | --- | --- | --- | --- | --- | --- | --- |
| MGESLFKGPRDYNPISSSICHLTNESDGHTTSLYGIGFGPFIITNKHLFRRNNGTLVVQSLHGVFKVKDTTTLQQHLVDGRDMIIIRMPKDFPPFPQKLKFRQPQREERICLVTTNFQTKSMSSMVSDTSCTFPSGDGIFWKHWIQTKDGQCGSPLVSTRDGFIVGIHSASNFTNTNNYFTSVPKNFMELLTNQEAQQWVSGWRLNADSVLWGGHKVFMVKPEEPFQPVKEATQL [E103Q] | 0.104 | 0.0647 | 0.0705 | 0.0877 | 0.0883 | 0.0515 | 0.0646 | 0.0549 | 0.0749 | 0.081 | 0.0587 | 0.025 | 0.103 | 0.0685 | 0.0553 | 0.0707 | – | – | – |
| MGESLFKGPRDYNPISSSICHLTNESDGHTTSLYGIGFGPFIITNKHLFRRNNGTLVVQSLHGVFKVKDTTTLQQHLVDGRDMIIIRMPKDFPPFPQKLKFREPQREERICLVTTNFQTKSESSMVSDTSCTFPSGDGIFWKHWIQTKDGQCGSPLVSTRDGFIVGIHSASNFTNTNNYFTSVPKNFMELLTNQEAQQWVSGWRLNADSVLWGGHKVFMVKPEEPFQPVKEATQL [M122E] | 0.14 | – | 0.0629 | – | – | 0.0636 | 0.054 | 0.0746 | – | – | 0.0602 | – | 0.0983 | 0.0683 | – | 0.0814 | – | – | – |
| MGESLFKGPRDYNPISSSICHLTNESDGHTTSLYGIGFGPFIITNKHLFRRNNGTLVVQSLHGVFKVKDTTTLQQHLVDGRDMIIIRMPKDFPPFPQKLKFREPQREERICLVTTNFQTKSQSSMVSDTSCTFPSGDGIFWKHWIQTKDGQCGSPLVSTRDGFIVGIHSASNFTNTNNYFTSVPKNFMELLTNQEAQQWVSGWRLNADSVLWGGHKVFMVKPEEPFQPVKEATQL [M122Q] | 0.0877 | 0.0812 | – | 0.0774 | 0.102 | 0.0621 | – | 0.0541 | 0.0741 | 0.0953 | 0.0606 | 0.0605 | 0.103 | 0.0592 | – | 0.0562 | 0.0732 | – | – |
| MGESLFKGPRDYNPISSSICHLTNESDGHTTSLYGIGFGPFIITNKHLFRRNNGTLVVQSLHGVFKVKDTTTLQQHLVDGRDMIIIRMPKDFPPFPQKLKFREPQREERICLVTTDFQTKSMSSMVSDTSCTFPSGDGIFWKHWIQTKDGQCGSPLVSTRDGFIVGIHSASNFTNTNNYFTSVPKNFMELLTNQEAQQWVSGWRLNADSVLWGGHKVFMVKPEEPFQPVKEATQL [N116D] | 0.111 | 0.0086 | 0.0759 | 0.0998 | 0.115 | 0.0587 | 0.0588 | 0.0437 | 0.0815 | 0.0882 | 0.0611 | 0.0565 | 0.102 | 0.0721 | – | 0.076 | 0.0596 | 0.0737 | – |
| MGESLFKGPRDYNPISSSICHLTNESDGHTTSLYGIGFGPFIITNKHLFRRNNGTLVVQSLHGVFKVKDTTTLQQHLVDGRDMIPIRMPKDFPPFPQKLKFREPQREERICLVTTNFQTKSMSSMVSDTSCTFPSGDGIFWKHWIQTKDGQCGSPLVSTRDGFIVGIHSASNFTNTNNYFTSVPKNFMELLTNQEAQQWVSGWRLNADSVLWGGHKVFMVKPEEPFQPVKEATQL [I85P] | 0.0112 | – | – | 0.0242 | – | 0.0342 | – | 0.0203 | 0.0359 | 0.0574 | – | 0.0439 | 0.0379 | 0.053 | 0.0272 | – | 0.0703 | – | 0.0259 |
| MGESLFKGPRDYNPISSSICHLTNESDGHTTSLYGIGFGPFIITNKHLFRRNNGTLVVQSLHGVFKVKDTTTLQQHLVDGRDMIIIRMPKDFPPFPQKLKFREPQFEERICLVTTNFQTKSMSSMVSDTSCTFPSGDGIFWKHWIQTKDGQCGSPLVSTRDGFIVGIHSASNFTNTNNYFTSVPKNFMELLTNQEAQQWVSGWRLNADSVLWGGHKVFMVKPEEPFQPVKEATQL [R106F] | 0.114 | – | 0.077 | – | – | – | 0.0677 | 0.0522 | 0.0758 | 0.0672 | – | 0.0535 | 0.0996 | – | 0.0689 | – | – | – | – |
| MGESLFKGPRDYNPISSSICHLTNESDGHTTSLYGIGFGPFIITNKHLFRRNNGTLVVQSLHGVFKVKDTTTLQQHLVDGRDMIIIRMPKAFPPFPQKLKFREPQREERICLVTTNFQTKSMSSMVSDTSCTFPSGDGIFWKHWIQTKDGQCGSPLVSTRDGFIVGIHSASNFTNTNNYFTSVPKNFMELLTNQEAQQWVSGWRLNADSVLWGGHKVFMVKPEEPFQPVKEATQL [D91A] | 0.123 | 0.0684 | – | 0.115 | – | – | – | 0.0714 | – | 0.0811 | 0.06 | 0.0526 | 0.0994 | – | 0.0745 | 0.0738 | 0.0475 | – | – |
| MGESLFKGPRDYNPISSSICHLTNESDGHTTSLYGIGFGPFIITNKHLFRRNNGTLVVQSLHGVFKVKDTTTLQQHLVDGRDMIIIRMPKDFPPFPQKLKFREPQREERICLVTTNFQTKSMSSMNSDTSCTFPSGDGIFWKHWIQTKDGQCGSPLVSTRDGFIVGIHSASNFTNTNNYFTSVPKNFMELLTNQEAQQWVSGWRLNADSVLWGGHKVFMVKPEEPFQPVKEATQL [V126N] | 0.164 | – | – | – | – | 0.0669 | – | 0.0654 | 0.0926 | 0.0746 | – | 0.0634 | 0.11 | 0.0752 | 0.0549 | 0.0666 | 0.0608 | – | 0.0667 |
| MGESLFKGPRDYNPISSSICHLTNESDGHTTSLYGIGFGPFIITNKHLFRRNNGTLVVQSLHGVFKVKDTTTLQQHLVDGRDMIIIRMPKDFPPFPQKLKFCEPQREERICLVTTNFQTKSMSSMVSDTSCTFPSGDGIFWKHWIQTKDGQCGSPLVSTRDGFIVGIHSASNFTNTNNYFTSVPKNFMELLTNQEAQQWVSGWRLNADSVLWGGHKVFMVKPEEPFQPVKEATQL [R102C] | 0.055 | 0.0533 | – | 0.0629 | 0.0356 | 0.0535 | 0.0351 | 0.0555 | 0.05 | 0.0386 | – | 0.0424 | 0.0592 | 0.0532 | 0.0481 | 0.0396 | – | – | – |
